{
  "source": "the supplement of paper PMC11417369",
  "note": "The other results are listed elsewhere or left out.",
  "data": [
    {"test_system": "PfAP2-HC AP2 domain (GST-tagged)", "experiment": "gcPBM binding intensity (ln(normalized median fluorescence intensity)); higher = stronger DNA binding", "summary_of_the_method": "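An Agilent 4 × 180k array carrying primer-extended double-stranded 36-bp intergenic genomic probes and negative controls received GST-tagged P. falciparum DNA-binding domains expressed in E. coli, about 25 μg on average, for 1 h. The binding buffer contained 1× PBS, 1% milk, 0.2 mg/ml BSA, 0.5% salmon testes DNA and 0.03% Triton X-100. Binding intensity is the top Masliner-normalised natural-log median intensity across replicate spots of either probe orientation, read after Alexa488 anti-GST antibody staining and a 488 nm scan.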", "values": [
      {"sequence": "CAAGCTATGTATTCTACACACACATACACCCATATA [CACACA_site9133]", "gcPBM binding intensity (ln)": 10.1},
      {"sequence": "TATGAAAAAATATATACACACATAATAAAGGTATAT [CACACA_site3737]", "gcPBM binding intensity (ln)": 9.9},
      {"sequence": "TAATATTATATATAAACACACATACCCATGTAAATA [CACACA_site5170]", "gcPBM binding intensity (ln)": 9.92},
      {"sequence": "TTTGTTTTAAATATTATACACACGTAAAAGTATAAT [CACACA_site7954]", "gcPBM binding intensity (ln)": 9.6},
      {"sequence": "AAAAAAAAAAATATATTATTTTACTTGTTTATTTTT [GTGCAC_negctrl_site435]", "gcPBM binding intensity (ln)": 9.55},
      {"sequence": "AATAATCAAATATTAAAAATTGTGCAAAAAAAAAAA [XGTACX_negctrl_site399]", "gcPBM binding intensity (ln)": 9.77},
      {"sequence": "TCGTACTTGTATTATGCACACATATAATTAAACATA [CACACA_site9089]", "gcPBM binding intensity (ln)": 9.77},
      {"sequence": "ATATATATATATATATGTACATAATAATATATATTA [XGTACX_site111]", "gcPBM binding intensity (ln)": 9.93},
      {"sequence": "TAAAAGGTGTATATAATACACACGTGGGATTAGAAT [CACACA_site610]", "gcPBM binding intensity (ln)": 9.96},
      {"sequence": "AAAAAATATACATATACACACATATGTATATAGAAT [CACACA_site2170]", "gcPBM binding intensity (ln)": 9.98},
      {"sequence": "TATATAAAGCATTGTAGTACTACCAATATTTTTTTT [XGTACX_site3523]", "gcPBM binding intensity (ln)": 9.79},
      {"sequence": "AAAATAAACAATGAACAATAAACAATGAACAATGAA [CACACA_negctrl_site1194]", "gcPBM binding intensity (ln)": 9.82},
      {"sequence": "AAAATATTATAAATTTGTACTTATAAATATTGTATA [XGTACX_site8165]", "gcPBM binding intensity (ln)": 9.55},
      {"sequence": "ATATGTTATATGTAATGTACTTTTGATGTATATATT [XGTACX_site8615]", "gcPBM binding intensity (ln)": 9.81},
      {"sequence": "TAATAAATAAAATATGCACACAAATATAGGAAACAA [CACACA_site8820]", "gcPBM binding intensity (ln)": 9.99},
      {"sequence": "ATATATATAATATAATGTACGTATAATAATATGAGA [XGTACX_site2282]", "gcPBM binding intensity (ln)": 9.96},
      {"sequence": "CGTTATATATATAAAAGTACAAAAATTAAACATTCC [XGTACX_site4568]", "gcPBM binding intensity (ln)": 9.71},
      {"sequence": "ATATGTAAATAAATATGTACTCATTTATTATTTTAT [XGTACX_site8748]", "gcPBM binding intensity (ln)": 9.71},
      {"sequence": "ATATTTTATGTGTTGGTGCACATCTTTATTTAAACT [GTGCAC_site9736]", "gcPBM binding intensity (ln)": 9.89},
      {"sequence": "ATATGTATATTTTTTTGTACGTATTTATGTGTGTGT [XGTACX_site2093]", "gcPBM binding intensity (ln)": 10.6},
      {"sequence": "ATATATACAAGTATTTTTTTTTCAAACATTATTTTT [CACACA_negctrl_site1808]", "gcPBM binding intensity (ln)": 9.68},
      {"sequence": "ATATATGAGCAAAAATATATAAGATAACACATAAAT [CACACA_negctrl_site167]", "gcPBM binding intensity (ln)": 9.93},
      {"sequence": "TTATATATATATTATAGTACATATATAATATAGTAA [XGTACX_site6869]", "gcPBM binding intensity (ln)": 9.56},
      {"sequence": "TCTCTATAAATAAATACATGCATATAATAAAGAATT [TGCATGCA_site710]", "gcPBM binding intensity (ln)": 9.6},
      {"sequence": "ATTTTTTTTATTTTTTCAATATATATATATATATAT [CACACA_negctrl_site1444]", "gcPBM binding intensity (ln)": 9.74},
      {"sequence": "GAAATAGAAATAAAATAGGCATACAATAGAACTAAG [TGCATGCA_negctrl_site537]", "gcPBM binding intensity (ln)": 10},
      {"sequence": "TTATATATATATAATACACACATAATAATATATTTA [CACACA_site3038]", "gcPBM binding intensity (ln)": 9.63},
      {"sequence": "TATTTTACAAAATAAGGTACGTAAATATATGGTAGG [XGTACX_site2133]", "gcPBM binding intensity (ln)": 9.68},
      {"sequence": "AAATATCTTTTATATTGTACATATTCCTTATGTGGA [XGTACX_site7638]", "gcPBM binding intensity (ln)": 9.44},
      {"sequence": "TATTTAAAAATATATACACACATTTTATATTATTAT [CACACA_site781]", "gcPBM binding intensity (ln)": 9.81},
      {"sequence": "CCTTATTATTATTTTACACACGTCCTAATAAGAGGA [CACACA_site1319]", "gcPBM binding intensity (ln)": 9.62},
      {"sequence": "AATATATAAATAAATACACACATAAAATAGAAATAT [CACACA_site1663]", "gcPBM binding intensity (ln)": 10.2},
      {"sequence": "AAAAACAAAAAAGAAGCACACATATATATATATATA [CACACA_site8779]", "gcPBM binding intensity (ln)": 10.4},
      {"sequence": "TTTATCTGATATATTACACACAAAAAAAAAAAAAAA [CACACA_site7637]", "gcPBM binding intensity (ln)": 9.5},
      {"sequence": "AATATTATATATATGGGTACTAATTCCTTTAATTTC [XGTACX_site102]", "gcPBM binding intensity (ln)": 9.56},
      {"sequence": "TTTTTTTAAACTGAAAGTACTTATTCCAAGAAAATA [XGTACX_site50]", "gcPBM binding intensity (ln)": 9.15},
      {"sequence": "ATATATATATCAACAACACACGATTAACTAAAAAAA [CACACA_site302]", "gcPBM binding intensity (ln)": 9.94},
      {"sequence": "ATAATGACTAAATTTAAACACACAAGGGGAGTTTAC [CACACA_site8209]", "gcPBM binding intensity (ln)": 9.76},
      {"sequence": "AAAACAAATGAGTACACACACATAAAAGTTGAAAAT [CACACA_site6238]", "gcPBM binding intensity (ln)": 10.7},
      {"sequence": "CGCACAAAAATATACACACACACATCTATATTTATT [CACACA_site7675]", "gcPBM binding intensity (ln)": 10.4},
      {"sequence": "TACCCATATTAATATGTGCGCATATAAAAGTCAAAC", "gcPBM binding intensity (ln)": 9.72},
      {"sequence": "GCATAAGAAATAAATAGTACACACATAGACACACAC [XGTACX_site3095]", "gcPBM binding intensity (ln)": 11.3},
      {"sequence": "TATATATATATATACACACACATATATATATATATA [CACACA_site1346]", "gcPBM binding intensity (ln)": 9.76},
      {"sequence": "ATAAGATATGTATATACACACATTTATTTACATATA [CACACA_site3263]", "gcPBM binding intensity (ln)": 9.88},
      {"sequence": "ATCATATATGTTATTACACACGTTATGTTATTATAA [CACACA_site2712]", "gcPBM binding intensity (ln)": 9.85},
      {"sequence": "TTAATTTCAAGTAGAAGTACTTTTATGATTGTGAGG [XGTACX_site1247]", "gcPBM binding intensity (ln)": 9.46},
      {"sequence": "GTGCATAGATGATATACACACAATATAATAGTATGT [CACACA_site5373]", "gcPBM binding intensity (ln)": 9.83},
      {"sequence": "TATAATTTAGCTTGTGCATGCAGGTGCTACATTTGT [TGCATGCA_site217]", "gcPBM binding intensity (ln)": 9.76},
      {"sequence": "TTTTCGGATAATAATTGTACGAAACATTTAAAAAAA [XGTACX_site8898]", "gcPBM binding intensity (ln)": 9.22},
      {"sequence": "TTGTAAGAAAAACACACACACACATATATATATATA [CACACA_site795]", "gcPBM binding intensity (ln)": 10.3},
      {"sequence": "TATATAATATATATATGTACACATATACATTTTTAT [XGTACX_site2832]", "gcPBM binding intensity (ln)": 9.87},
      {"sequence": "TAAATAGTTATAAAAGTGCAAAAAAAAAAAAAAAAA [GTGCAC_site9550]", "gcPBM binding intensity (ln)": 9.1},
      {"sequence": "ACTCAAAATTATAATTGTACAAATGCTTTGTTTAAT [XGTACX_site3437]", "gcPBM binding intensity (ln)": 9.77},
      {"sequence": "ACATTATATCTAAGTACACACATTAATTTTTTTTTT [CACACA_site7850]", "gcPBM binding intensity (ln)": 9.79},
      {"sequence": "CTATAACCTCTGTTCACACATATATCATAATTTACA [CACACA_site5446]", "gcPBM binding intensity (ln)": 9.79},
      {"sequence": "TTTATTTTGATTTAATGTACAAATAGTAAAACAAAA [XGTACX_site4789]", "gcPBM binding intensity (ln)": 9.24}
    ]}
  ]
}
